For one test, the system named is HSkMC. Briefly: cytotoxicity call (relative viability < 0.9). The conditions noted are these: 10 µM.
In a further test the test system is HepG2. Briefly: cytotoxicity call (relative viability < 0.9). The conditions noted are these: 10 µM.
For a further test, the system named is S. aureus RN4220. Briefly: growth inhibition call (relative growth <= 0.2). The conditions noted are these: 50 µM.

This is one part of the list.

For `C[C@@H]1CCCCO[C@H](CN(C)S(=O)(=O)c2ccc(Cl)cc2)[C@@H](C)CN([C@H](C)CO)C(=O)c2cc(NS(=O)(=O)c3cccs3)ccc2O1`, the cytotoxicity call in the test with HSkMC and in the test with HepG2 was “inactive” each time. The growth inhibition call with S. aureus RN4220 was “inactive”.
In the case of `C[C@@H]1CCCCO[C@@H](CN(C)C(=O)c2ccccc2)[C@H](C)CN([C@H](C)CO)C(=O)c2cc(NC(=O)Nc3ccccc3)ccc2O1`, the cytotoxicity call with HSkMC and with HepG2 was “inactive” in each case. Also, the growth inhibition call in the test on S. aureus RN4220 is “inactive”.
As to `C[C@@H]1O[C@@H](O[C@H]2[C@H](O[C@H]3[C@H](O)[C@@H](O[C@@H]4O[C@H](CO)[C@@H](O)[C@H](O)[C@H]4O)[C@H](O[C@H]4CC[C@]5(C)[C@H]6CC[C@]78OC[C@@]9(CCC(C)(C)C[C@@H]97)[C@H](O)C[C@@]8(C)[C@]6(C)CC[C@H]5C4(C)C)O[C@@H]3C(=O)O)O[C@H](CO)[C@H](O)[C@@H]2O)[C@H](O)[C@H](O)[C@H]1O`, the cytotoxicity call with HSkMC and in the test on HepG2 was “active” throughout. Also, the growth inhibition call in the test on S. aureus RN4220 is “inactive”.
As for `CN(C)CC[C@H](CSc1ccccc1)Nc1ccc(S(=O)(=O)NC(=O)c2ccc(N3CCN(Cc4ccccc4-c4ccc(Cl)cc4)CC3)cc2)cc1[N+](=O)[O-]`, the cytotoxicity call in the test on HSkMC and in the test on HepG2 was “inactive” throughout. For the same compound, the growth inhibition call in the test on S. aureus RN4220 was “inactive”.
Turning to `Cc1noc(C)c1NC(=O)Nc1ccc2c(c1)C(=O)N([C@H](C)CO)C[C@H](C)[C@@H](CN(C)Cc1ccccc1)OCCCC[C@H](C)O2`, the cytotoxicity call with HSkMC and with HepG2 was “inactive” in each case. For the same compound, in the test on S. aureus RN4220, the growth inhibition call is “inactive”.
On to `O=C(N[C@@H](c1ccc(-c2ccccc2)cc1)c1cnccn1)C1CCN(Cc2ccc(Cl)c(Cl)c2)CC1`, for which the cytotoxicity call in the test with HSkMC and with HepG2 was “inactive” in each case. Also, the growth inhibition call in the test on S. aureus RN4220 is “inactive”.
On to `Cc1noc(C)c1NC(=O)N(C)C[C@H]1Oc2c(NC(=O)c3ccncc3)cccc2C(=O)N([C@@H](C)CO)C[C@@H]1C`, for which the cytotoxicity call with HSkMC and in the test on HepG2 was “inactive” throughout. Moreover, the growth inhibition call in the test with S. aureus RN4220 was “inactive”.
Consider `C[C@H](CO)N1C[C@H](C)[C@H](CN(C)C(=O)Nc2ccc(C(F)(F)F)cc2)Oc2ccc(NC(=O)Nc3ccc(C(F)(F)F)cc3)cc2CC1=O`, for which the cytotoxicity call in the test with HSkMC and in the test with HepG2 was “active” each time. Moreover, the growth inhibition call with S. aureus RN4220 is “inactive”.
`Cl.Cl.O=C(O)COCCN1CCN(C(c2ccccc2)c2ccc(Cl)cc2)CC1` (stereo not given): the cytotoxicity call in the test with HSkMC and with HepG2 was “inactive” in each case. The growth inhibition call in the test with S. aureus RN4220 is “inactive”.
Consider `Cc1ccc(S(=O)(=O)N(C)C[C@H]2OCCCC[C@@H](C)Oc3ccc(NC(=O)Nc4ccc(F)cc4)cc3C(=O)N([C@@H](C)CO)C[C@H]2C)cc1`, for which the cytotoxicity call in the test with HSkMC is “inactive”. Moreover, in the test with HepG2, the cytotoxicity call is “active”. Also, the growth inhibition call in the test with S. aureus RN4220 was “inactive”.
Consider `Cc1noc(C)c1NC(=O)Nc1cccc2c1O[C@H](CN(C)C(=O)Nc1ccc(C(F)(F)F)cc1)[C@H](C)CN([C@H](C)CO)C2=O`, for which the cytotoxicity call in the test with HSkMC and in the test with HepG2 was “inactive” throughout. Further, the growth inhibition call with S. aureus RN4220 was “inactive”.
On to `Cc1ccc(S(=O)(=O)Nc2cccc3c2O[C@@H](CN(C)S(=O)(=O)c2cccs2)[C@H](C)CN([C@@H](C)CO)C3=O)cc1`, for which the cytotoxicity call with HSkMC and in the test on HepG2 was “inactive” each time. Also, the growth inhibition call in the test on S. aureus RN4220 is “inactive”.
With `COc1ccc(S(=O)(=O)N(C)C[C@H]2OCCCC[C@H](C)Oc3ccc(NC(=O)C4CCCCC4)cc3C(=O)N([C@H](C)CO)C[C@@H]2C)cc1`, the cytotoxicity call in the test on HSkMC was “inactive”. Besides, in the test on HepG2, the cytotoxicity call was “active”. The growth inhibition call with S. aureus RN4220 is “inactive”.
On to `C[C@@H](O)Cn1c(=N)n(C)c2ccccc21`, for which the cytotoxicity call in the test with HSkMC and with HepG2 was “inactive” in each case. Further, the growth inhibition call in the test on S. aureus RN4220 is “inactive”.
With `CS(=O)(=O)N1C[C@H](NC(=O)c2cnccn2)[C@H]2OCCC[C@H]21`, the cytotoxicity call with HSkMC and with HepG2 was “inactive” in each case. Also, the growth inhibition call in the test with S. aureus RN4220 is “inactive”.
For the compound `C[C@H](CO)N1C[C@H](C)[C@H](CN(C)C(=O)Nc2cccc3ccccc23)Oc2ccc(NC(=O)CCC(F)(F)F)cc2C1=O`, the cytotoxicity call with HSkMC and in the test on HepG2 was “inactive” each time. In addition, in the test on S. aureus RN4220, the growth inhibition call is “inactive”.
On to `C[C@@H]1CN(C)S(=O)(=O)CCO1`, for which the cytotoxicity call in the test with HSkMC and with HepG2 was “inactive” each time. In addition, the growth inhibition call in the test with S. aureus RN4220 was “inactive”.
`O=C(C[C@H]1CC[C@@H](NS(=O)(=O)c2ccc(F)cc2)[C@H](CO)O1)N1CCC(Cc2ccccc2)CC1`: the cytotoxicity call in the test on HSkMC and in the test with HepG2 was “inactive” each time. The growth inhibition call with S. aureus RN4220 is “inactive”.
Consider `C[C@@H]1CN([C@@H](C)CO)C(=O)c2cc(NS(=O)(=O)c3ccc(F)cc3)ccc2O[C@@H](C)CCCCO[C@@H]1CN(C)C(=O)c1ccccc1`, for which the cytotoxicity call in the test on HSkMC and in the test on HepG2 was “inactive” in each case. In addition, in the test on S. aureus RN4220, the growth inhibition call is “inactive”.
In the case of `CC(C)CC#Cc1cnc2c(c1)C(=O)N([C@@H](C)CO)C[C@@H](C)[C@@H](CN(C)S(=O)(=O)c1ccccc1)O2`, the cytotoxicity call in the test with HSkMC and in the test with HepG2 was “inactive” in each case. The growth inhibition call in the test with S. aureus RN4220 was “inactive”.
With `O=C(NO)c1ccc(C(=O)N/N=C/[C@H](O)[C@@H](O)[C@H](O)[C@H](O)CO[C@H]2O[C@H](CO)[C@H](O)[C@H](O)[C@H]2O)cc1`, the cytotoxicity call in the test with HSkMC and in the test on HepG2 was “inactive” in each case. Moreover, the growth inhibition call in the test on S. aureus RN4220 is “inactive”.
As for `COc1ccc(S(=O)(=O)Nc2ccc3c(c2)C(=O)N([C@H](C)CO)C[C@H](C)[C@H](CN(C)Cc2ccc(Cl)c(Cl)c2)OCCCC[C@H](C)O3)cc1`, in the test with HSkMC, the cytotoxicity call was “active”. In the test on HepG2, the cytotoxicity call was “inactive”. Moreover, the growth inhibition call in the test on S. aureus RN4220 was “inactive”.
Take `COc1ccc(NC(=O)Nc2cccc3c2O[C@@H](CN(C)Cc2ccc(Cl)c(Cl)c2)[C@H](C)CN([C@@H](C)CO)C3=O)cc1`: the cytotoxicity call in the test with HSkMC and in the test with HepG2 was “inactive” each time. For the same compound, the growth inhibition call with S. aureus RN4220 was “inactive”.
On to `Nc1ccc(Sc2ccc3ccccc3c2Cl)c(Cl)c1`, for which the cytotoxicity call in the test with HSkMC and with HepG2 was “inactive” throughout. For the same compound, in the test with S. aureus RN4220, the growth inhibition call was “active”.
Consider `Cc1noc(C)c1NC(=O)Nc1ccc2c(c1)C(=O)N([C@H](C)CO)C[C@@H](C)[C@@H](CN(C)S(=O)(=O)c1ccccc1)OCCCC[C@@H](C)O2`, for which the cytotoxicity call with HSkMC and in the test on HepG2 was “inactive” in each case. Also, the growth inhibition call with S. aureus RN4220 was “inactive”.
Take `C[C@H]1CN([C@@H](C)CO)C(=O)c2cc(NC(=O)Nc3ccc(F)cc3)ccc2O[C@@H]1CN(C)S(C)(=O)=O`: the cytotoxicity call in the test on HSkMC and in the test on HepG2 was “inactive” each time. Also, the growth inhibition call in the test with S. aureus RN4220 was “inactive”.
Regarding `C[C@H](CO)N1C[C@H](C)[C@@H](CN(C)Cc2ccc(-c3ccccc3)cc2)Oc2ccc(NC(=O)Cc3ccccc3)cc2C1=O`, the cytotoxicity call in the test with HSkMC and with HepG2 was “inactive” each time. Further, the growth inhibition call with S. aureus RN4220 was “inactive”.
For the compound `CC(C)CC#Cc1ccc2c(c1)O[C@H](CN(C)C(=O)c1cccnc1)[C@H](C)CN([C@H](C)CO)S2(=O)=O`, the cytotoxicity call in the test on HSkMC and in the test on HepG2 was “inactive” in each case. Also, the growth inhibition call in the test with S. aureus RN4220 is “inactive”.
On to `C#CCCCCCCCCCCCC(O)CC(O)CO.C=CCCCCCCCCCCCC(O)CC(O)CO` (stereo not given), for which the cytotoxicity call in the test on HSkMC and in the test with HepG2 was “inactive” each time. Moreover, the growth inhibition call in the test on S. aureus RN4220 was “inactive”.
Take `C[C@@H]1CCCCO[C@@H](CN(C)C(=O)C2CCCCC2)[C@H](C)CN([C@H](C)CO)C(=O)c2cc(NC(=O)Nc3ccc4c(c3)OCO4)ccc2O1`: the cytotoxicity call in the test on HSkMC and in the test with HepG2 was “inactive” each time. Moreover, the growth inhibition call in the test with S. aureus RN4220 is “inactive”.
Consider `Nc1nc(Cl)nc2c1ncn2[C@H]1C[C@H](O)[C@@H](CO)O1`, for which the cytotoxicity call in the test on HSkMC was “active”. For the same compound, in the test on HepG2, the cytotoxicity call is “inactive”. For the same compound, the growth inhibition call in the test with S. aureus RN4220 is “inactive”.
In the case of `COCCOC(=O)N1C(=O)[C@@]2(c3cc(C#CC4=CCCCC4)ccc31)[C@H](c1ccc(OCCO)cc1)N1[C@H](c3ccccc3)[C@H](c3ccccc3)OC(=O)[C@H]1[C@@H]2C(=O)N1CCCCCCC1`, the cytotoxicity call with HSkMC and in the test with HepG2 was “inactive” in each case. Besides, the growth inhibition call in the test on S. aureus RN4220 is “inactive”.
Consider `C[C@@H]1CN([C@@H](C)CO)C(=O)c2c(c3ccccc3n2C)-c2ccccc2CO[C@@H]1CN(C)Cc1ccc(C(F)(F)F)cc1`, for which the cytotoxicity call in the test with HSkMC and in the test with HepG2 was “inactive” in each case. The growth inhibition call in the test on S. aureus RN4220 was “inactive”.
`C[C@H](CO)N1C[C@H](C)[C@H](CN(C)C(=O)NC2CCCCC2)Oc2ccc(NC(=O)C3CC3)cc2CC1=O`: the cytotoxicity call in the test with HSkMC and with HepG2 was “inactive” in each case. Moreover, the growth inhibition call in the test with S. aureus RN4220 is “inactive”.
`CO[C@H]1/C=C\O[C@@]2(C)Oc3c(C)c(O)c4c(c3C2=O)[C@]2(C=C(NC(=O)/C(C)=C\C=C/[C@@H](C)[C@@H](O)[C@@H](C)[C@@H](O)[C@@H](C)[C@@H](OC(C)=O)[C@@H]1C)C4=O)OCC(=O)O2`: the cytotoxicity call in the test on HSkMC is “active”. Besides, the cytotoxicity call in the test on HepG2 was “inactive”. For the same compound, in the test on S. aureus RN4220, the growth inhibition call is “active”.
With `C[C@H](CO)N1C[C@H](C)[C@@H](CN(C)Cc2ccncc2)Oc2c(NC(=O)c3ccncc3)cccc2C1=O`, the cytotoxicity call in the test on HSkMC and in the test on HepG2 was “inactive” each time. Also, in the test with S. aureus RN4220, the growth inhibition call is “inactive”.
With `C[C@@H]1CCCCO[C@@H](CN(C)S(=O)(=O)c2cn(C)cn2)[C@H](C)CN([C@@H](C)CO)C(=O)c2cc(NS(=O)(=O)c3cccs3)ccc2O1`, the cytotoxicity call with HSkMC and in the test on HepG2 was “inactive” in each case. For the same compound, the growth inhibition call with S. aureus RN4220 is “inactive”.
As to `C[C@@H]1CCCCO[C@@H](CN(C)C(=O)Nc2cccc3ccccc23)[C@H](C)CN([C@@H](C)CO)C(=O)c2cc(NS(=O)(=O)c3cn(C)cn3)ccc2O1`, the cytotoxicity call in the test on HSkMC (human skeletal muscle cells) and in the test on HepG2 was “inactive” throughout. The growth inhibition call in the test on S. aureus RN4220 was “inactive”.
With `COC[C@H]1C[C@H](c2ccc(NC(=O)CCCCCCC(=O)NO)cc2)O[C@H](c2ccc([C@H]3O[C@@H](COC)C[C@H](c4ccc(NC(=O)CCCCCCC(=O)NO)cc4)O3)cc2)O1`, the cytotoxicity call in the test with HSkMC and with HepG2 was “inactive” throughout. Moreover, in the test on S. aureus RN4220, the growth inhibition call was “inactive”.
On to `COc1ccc([Si](C)(C)[C@H]2[C@H](CC(=O)N3Cc4ccccc4C[C@H]3CO)O[C@@]3(C(=O)N(Cc4ccc(N5C(=O)c6cccc7cccc5c67)cc4)c4ccccc43)[C@@H]2C)cc1`, for which the cytotoxicity call in the test with HSkMC and in the test with HepG2 was “inactive” in each case. Further, the growth inhibition call in the test on S. aureus RN4220 is “inactive”.

These data come from the antibiotic and cytotoxicity screens of Wong et al. (2023).
